# Some of the results follow. Interaction screen of human proteins with wild-type SARS-CoV-2 proteins by split-DHFR complementation in yeast, 1 µg/mL methotrexate. Value = fitness of the pair (three or more lineages) minus that of the viral protein without a human partner, on a scale set by negative (0) and fused positive (1) controls, mean of up to three cultures; higher = more likely to interact. Active = false discovery rate below 0.05 (one-sided t-test) in at least one culture. Nearly all pairs are not hits, and differences among them are mostly noise (correlation between cultures about 0.3); most hits were seen in one culture only. Human sequences are the Swiss-Prot entries looked up by gene name; the clone may be another isoform. NSP2 values were corrected by the authors for a growth advantage. Listed are human proteins with a hit and a random twelfth of the others.
# B1: MAB21L3, Q8N8X9 (protein)
# chain: MKYLTVGDLEDCLLNKVDLRRQQISQAVEEVQKVVHHLTTNISNQDIRFQAVPYSDTYNENIKVLAPSQFLVTVPIKGLAGYREAREQHWRYYTLQGTRLPCPLRDPEGLQQWLEVEQFMKSLWQWHETDVNIDGDIVPAKVLLVFRKLVENAVRTCHLSGKVSLLGNRSAVWVAVETSAYQVELELVPAVEIPTTWSKKARWPRCLQRWPSQERVECIKSFGFNLLACSNYHWQLSFLRAEQVLLEQLDEDGGCRRKCFQVMRHLKEDIWCPGNRPVITSHHLQTVLFWTCEKYPHFKDWQVFSKAFLRLVRKLHKCVSQHFLKHYFVRNSNLFQCTNPTELDTVAQKLATFLKNPQIGPP
# B2: MS4A7, Q9GZW8 (protein)
# chain: MLLQSQTMGVSHSFTPKGITIPQREKPGHMYQNEDYLQNGLPTETTVLGTVQILCCLLISSLGAILVFAPYPSHFNPAISTTLMSGYPFLGALCFGITGSLSIISGKQSTKPFDLSSLTSNAVSSVTAGAGLFLLADSMVALRTASQHCGSEMDYLSSLPYSEYYYPIYEIKDCLLTSVSLTGVLVVMLIFTVLELLLAAYSSVFWWKQLYSNNPGSSFSSTQSQDHIQQVKKSSSRSWI
# B3: MTMR12, Q9C0I1 (protein)
# chain: MLGKGVVGGGGGTKAPKPSFVSYVRPEEIHTNEKEVTEKEVTLHLLPGEQLLCEASTVLKYVQEDSCQHGVYGRLVCTDFKIAFLGDDESALDNDETQFKNKVIGENDITLHCVDQIYGVFDEKKKTLFGQLKKYPEKLIIHCKDLRVFQFCLRYTKEEEVKRIVSGIIHHTQAPKLLKRLFLFSYATAAQNNTVTDPKNHTVMFDTLKDWCWELERTKGNMKYKAVSVNEGYKVCERLPAYFVVPTPLPEENVQRFQGHGIPIWCWSCHNGSALLKMSALPKEQDDGILQIQKSFLDGIYKTIHRPPYEIVKTEDLSSNFLSLQEIQTAYSKFKQLFLIDNSTEFWDTDIKWFSLLESSSWLDIIRRCLKKAIEITECMEAQNMNVLLLEENASDLCCLISSLVQLMMDPHCRTRIGFQSLIQKEWVMGGHCFLDRCNHLRQNDKEEVPVFLLFLDCVWQLVHQHPPAFEFTETYLTVLSDSLYIPIFSTFFFNSPHQKDTNMGREGQDTQSKPLNLLTVWDWSVQFEPKAQTLLKNPLYVEKPKLDKGQRKGMRFKHQRQLSLPLTQSKSSPKRGFFREETDHLIKNLLGKRISKLINSSDELQDNFREFYDSWHSKSTDYHGLLLPHIEGPEIKVWAQRYLRWIPEAQILGGGQVATLSKLLEMMEEVQSLQEKIDERHHSQQAPQAEAPCLLRNSARLSSLFPFALLQRHSSKPVLPTSGWKALGDEDDLAKREDEFVDLGDV
# Target: SARS-CoV-2 M
# Assay: yeast fitness gain over the viral ORF with no human partner (scaled fitness); higher = more likely to interact
# Protocol: (§1)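 Split mouse DHFR complementation in pooled diploid yeast: human ORFeome clones carry one fragment and viral ORFs the other; barcoded lineages compete in 1 µg/mL methotrexate and fitness is read by barcode sequencing in up to three cultures.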
row,Binder,yeast fitness gain
1,B1,inactive: 0.0706
2,B2,inactive: -0.00117
3,B3,inactive: 0.0856

# Target: SARS-CoV-2 N
# Assay: as above
# Protocol: as §1
row,Binder,yeast fitness gain
1,B1,inactive: -0.015
2,B3,inactive: 0.0975

# Target: SARS-CoV-2 NSP1
# Assay: as above
# Protocol: as §1
row,Binder,yeast fitness gain
1,B1,inactive: 0.0568
2,B2,inactive: -0.0562
3,B3,inactive: 0.013

# Target: SARS-CoV-2 NSP10
# Assay: as above
# Protocol: as §1
row,Binder,yeast fitness gain
1,B1,inactive: 0.0773
2,B2,inactive: 0.0187
3,B3,inactive: -0.0453

# Target: SARS-CoV-2 NSP12
# Assay: as above
# Protocol: as §1
row,Binder,yeast fitness gain
1,B1,inactive: -0.0219
2,B2,inactive: 0.0666
3,B3,inactive: 0.0876

# Target: SARS-CoV-2 NSP13
# Assay: as above
# Protocol: as §1
row,Binder,yeast fitness gain
1,B1,inactive: 0.109
2,B2,inactive: -0.163
3,B3,inactive: 0.0553

# Target: SARS-CoV-2 NSP14
# Assay: as above
# Protocol: as §1
row,Binder,yeast fitness gain
1,B1,inactive: 0.0807
2,B3,inactive: 0.00264

# Target: SARS-CoV-2 NSP15
# Assay: as above
# Protocol: as §1
row,Binder,yeast fitness gain
1,B1,inactive: 0.0153

# Target: SARS-CoV-2 NSP16
# Assay: as above
# Protocol: as §1
row,Binder,yeast fitness gain
1,B1,inactive: 0.00487

# Target: SARS-CoV-2 NSP2
# Assay: as above
# Protocol: as §1
row,Binder,yeast fitness gain
1,B1,inactive: -0.0291
2,B2,inactive: -0.0739
3,B3,inactive: -0.0337

# Target: SARS-CoV-2 NSP4
# Assay: as above
# Protocol: as §1
row,Binder,yeast fitness gain
1,B1,inactive: -0.18
2,B3,inactive: 0.202

# Target: SARS-CoV-2 NSP5
# Assay: as above
# Protocol: as §1
row,Binder,yeast fitness gain
1,B1,inactive: 0.0148
2,B3,inactive: 0.0516

# Target: SARS-CoV-2 NSP6
# Assay: as above
# Protocol: as §1
row,Binder,yeast fitness gain
1,B1,inactive: 0.0652
2,B3,inactive: -0.00966

# Target: SARS-CoV-2 NSP7
# Assay: as above
# Protocol: as §1
row,Binder,yeast fitness gain
1,B1,inactive: 0.0171
2,B3,inactive: -0.147

# Target: SARS-CoV-2 NSP8
# Assay: as above
# Protocol: as §1
row,Binder,yeast fitness gain
1,B1,inactive: 0.0122
2,B2,inactive: 0.001
3,B3,inactive: 0.0902

# Target: SARS-CoV-2 ORF10
# Assay: as above
# Protocol: as §1
row,Binder,yeast fitness gain
1,B1,inactive: 0.112
2,B2,inactive: -0.207
3,B3,inactive: 0.00987

# Target: SARS-CoV-2 ORF3B
# Assay: as above
# Protocol: as §1
row,Binder,yeast fitness gain
1,B1,inactive: -0.0495
2,B2,inactive: 0.0295
3,B3,inactive: 0.0635

# Target: SARS-CoV-2 ORF6
# Assay: as above
# Protocol: as §1
row,Binder,yeast fitness gain
1,B1,inactive: 0.00389
2,B2,inactive: -0.185
3,B3,inactive: -0.028

# Target: SARS-CoV-2 ORF7A
# Assay: as above
# Protocol: as §1
row,Binder,yeast fitness gain
1,B1,inactive: -0.0667
2,B3,inactive: 0.00303

# Target: SARS-CoV-2 ORF7B
# Assay: as above
# Protocol: as §1
row,Binder,yeast fitness gain
1,B1,inactive: -0.141
2,B3,inactive: -0.0071

# Target: SARS-CoV-2 ORF8
# Assay: as above
# Protocol: as §1
row,Binder,yeast fitness gain
1,B1,inactive: 0.0583
2,B2,inactive: -0.016
3,B3,inactive: -0.033

# Target: SARS-CoV-2 ORF9B
# Assay: as above
# Protocol: as §1
row,Binder,yeast fitness gain
1,B1,inactive: -0.0449
2,B2,inactive: 0.0374
3,B3,inactive: -0.0373

# Target: SARS-CoV-2 ORF9Bwu (the 73-codon ORF)
# Assay: as above
# Protocol: as §1
row,Binder,yeast fitness gain
1,B1,inactive: -0.0897
2,B3,inactive: -0.0105

# Target: SARS-CoV-2 S
# Assay: as above
# Protocol: as §1
row,Binder,yeast fitness gain
1,B1,inactive: 0.166
2,B2,inactive: -0.0359
3,B3,inactive: 0.141

# Target: SARS-CoV-2 ORF3A
# Assay: as above
# Protocol: as §1
row,Binder,yeast fitness gain
1,B3,inactive: -0.0275
